According to PubChem BioAssay AID504832 (National Center for Advancing Translational Sciences (NCATS), 2011):
The whole screen tested about 310,000 compounds, of which about 18,000 (5.8%) were called active. The shares of active, inactive and inconclusive entries below differ from those in the screen. Calls come from the whole dose curve; as a rule, active = well fitted inhibition curve with a large enough effect; inconclusive = small, poorly fitted or top-dose-only effect, or another doubt; inactive = no such curve, though single readings can be large or run the other way. No potency is given beside an inconclusive call; the fits are too rough.

Experiment: Primary qHTS for delayed death inhibitors of the malarial parasite plastid, 48 hour incubation
Settings: P. falciparum luciferase growth in erythrocytes; series mostly up to 28.7 µM; activity change, negative = inhibition: at the top concentration
Outline: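 First compound was added to culture medium, then infected red cells at 0.1% parasitemia and 2% hematocrit (final). After incubation at 37 C under 5% CO2, luciferase detection reagent was dispensed and light output recorded.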
% is set by controls: 0 for no effect and ±100 for the full control effect; potency is the fitted concentration of half-maximal effect; tags give direction and shape of the fitted curve.

Row | Structure (SMILES) | activity change, negative = inhibition | Potency
1 | CCOC(=O)CC1C(=O)NCCN1C(=O)COc1ccc(C(C)(C)C)cc1 (centres undefined) | inactive: 0.244% | 
2 | CCOc1ccc(CCNC(=O)CSC(=S)N2CCCC2)cc1OCC |  | inconclusive [inhibitor, single point]
3 | CCCCCC(=O)NC(=S)NC1C2CC3CC(C2)CC1C3 (centres undefined) |  | active: 4.65 µM
4 | Cc1ccc(C)c(OCCCC(=O)NC2CCCCC2)c1 |  | inconclusive [inhibitor, partial curve, poor fit]
5 | COc1cc(C2C(C#N)=C(C)NC(C)=C2C#N)cc(OC)c1OC |  | active: 9.28 µM
6 | COc1ccc(C2C(C#N)=C(N)OC3=C2C(=O)CCC3)cc1Cn1nc(C)c([N+](=O)[O-])c1C (centres undefined) |  | active: 11.7 µM
7 | N#CCC(=O)Nc1ccc(C(=O)OCC(=O)C23CC4CC(CC(C4)C2)C3)cc1 |  | active: 13.1 µM
8 | Cc1ccc(NC(=O)Nc2nc3ccc(S(C)(=O)=O)cc3s2)cc1 |  | inconclusive [inhibitor, single point]
9 | CCCCCCC1CC(CSc2ncn[nH]2)OC1=O (centres undefined) |  | inconclusive [inhibitor, single point]
10 | COc1ccc(NC(=S)N2CCCN(Cc3cccc(Cl)c3)C2)cc1 |  | inconclusive [inhibitor, partial curve, poor fit]
11 | COc1ccc(C(=O)C2CCCN(C(=O)c3cccc(N4CCCC4=O)c3)C2)cc1OC (centres undefined) |  | inconclusive [inhibitor, partial curve]
12 | CNC(=O)COc1ccc(S(=O)(=O)Nc2ccc(OC)cc2)cc1 | inactive: -16.6% | 
13 | CN(Cc1ccccc1OCCO)CC1CCCN(CCc2ccc(Cl)cc2)C1 (centres undefined) |  | inconclusive [inhibitor, single point]
14 | COc1ccc(Cl)cc1NC(=S)N(Cc1ccccc1C)CC1CCC(C(=O)O)CC1 (centres undefined) | inactive: -23.8% | 
15 | N#Cc1nc(COc2ccc(-c3ccccc3)cc2)oc1NCc1cccnc1 |  | inconclusive [inhibitor, single point]
16 | Cc1sc2ncn(CC(=O)NCc3ccccn3)c(=O)c2c1S(=O)(=O)N1CCOCC1 |  | inconclusive [inhibitor, single point]
17 | CC1=NN(Cc2ccccc2)C(=O)C1C(c1ccncc1)C(C#N)C#N (centres undefined) |  | inconclusive [inhibitor, single point]
18 | COc1ccc(NS(=O)(=O)c2cc(C(=O)N3CCC3)ccc2C)cc1 |  | inconclusive [inhibitor, single point]
19 | COc1cc(SC)ccc1C(=O)NCC1CCCO1 (centres undefined) | inactive: 38.4% | 
20 | CCN(CC)CCN(C(=O)C1CCCCC1)c1nc2cc3c(cc2s1)OCO3 |  | inconclusive [inhibitor, single point]
21 | O=C(Nc1ccncc1)c1ccccc1-c1ccccc1 |  | inconclusive [inhibitor, single point]
22 | CCN(CC1COc2ccccc2O1)C(=O)CN1C(=O)NC(C)(c2ccc(C)cc2)C1=O (centres undefined) |  | inconclusive [inhibitor, single point]
23 | COc1cc(C(=O)Nc2ccc(C(F)(F)F)cc2)ccc1OCC(=O)N1CCOCC1 | inactive: 31.3% | 

Row | Structure (SMILES) | activity change, negative = inhibition | Potency
24 | COc1ccc(N2CCN(C(=O)CCc3ccc(S(=O)(=O)NCC(C)C)cc3)CC2)cc1 |  | inconclusive [inhibitor, single point]
25 | Cc1ccc(NC(=O)N(Cc2ccco2)C(C)c2ccco2)cc1C (centres undefined) |  | inconclusive [inhibitor, single point]
26 | COc1ccccc1NS(=O)(=O)/C=C/c1ccccc1 | inactive: -6.35% | 
27 | Cc1nc(N)nc(C)c1Cc1ccccc1 | inactive: -10.3% | 
28 | CSc1nc(C)c2c(n1)N(c1ccc(F)cc1)CC2 | inactive: 8.52% | 
29 | Cc1cc(=O)cc(C)n1-c1ccccc1Br | inactive: 9.48% | 
30 | CCOc1ccc(/C=N/NC(=S)NC2CC3CCC2C3)cc1 (centres undefined) |  | inconclusive [inhibitor, partial curve, poor fit]
31 | CN(C)C(=O)/C(=C\c1ccc(-c2cccc([N+](=O)[O-])c2)o1)NC(=O)c1ccccc1 |  | inconclusive [inhibitor, full curve, poor fit]
32 | CCN1C(=O)c2ccc(C(=O)NCc3ccco3)cc2C1=O | inactive: 1.31% | 
33 | CCCCCCn1c(CN2CCN(CCO)CC2)nc2c1c(=O)n(C)c(=O)n2C |  | inconclusive [inhibitor, single point]
34 | CN1C(=S)N(c2cccnc2)C(=O)/C1=C\c1ccc(C(C)(C)C)cc1 |  | inconclusive [inhibitor, partial curve]
35 | O=C(Nc1ccc(F)cc1)C1CCC(CNc2c(N3CCCCC3)c(=O)c2=O)CC1 (centres undefined) |  | active: 11.7 µM
36 | COc1ccc(CCC(=O)Nc2nnc(C(F)(F)F)s2)cc1 |  | inconclusive [inhibitor, single point]
37 | COCc1nc2ccccc2n1CCOc1ccccc1OC |  | inconclusive [inhibitor, full curve, poor fit]
38 | COc1cc(-c2nc(-c3ccc4c(c3)-c3ccccc3S4(=O)=O)c(-c3ccccc3)[nH]2)cc(OC)c1OC |  | active: 1.85 µM
39 | COc1cc(/C(O)=C(\C#N)c2nc3ccccc3[nH]2)cc(OC)c1OC |  | inconclusive [inhibitor, single point]
40 | N=C1S/C(=C\c2ccco2)C(=O)N1c1nccs1 |  | inconclusive [inhibitor, single point]
41 | CC(=O)c1sc(NC(=O)C2CCN(c3ncnc4sc(C)c(C)c34)CC2)nc1-c1ccccc1 |  | active: 9.28 µM
42 | COc1ccccc1N1CCN(CC(=O)c2c(C)[nH]c3cc(C)ccc23)CC1 |  | active: 13.1 µM
43 | O=C(c1ccco1)N1CCN(S(=O)(=O)c2ccccc2[N+](=O)[O-])CC1 |  | inconclusive [inhibitor, full curve, poor fit]
44 | N#CC1=C(O)CCCn2c1nc1ccccc1c2=O |  | inconclusive [inhibitor, partial curve]
45 | COc1cccc2cc(CC(=O)c3cc(C)ccc3C)c(=O)oc12 |  | inconclusive [inhibitor, single point]
46 | CC(NC(=O)CCNS(=O)(=O)c1ccc2c(c1)oc(=O)n2C)c1ccccc1 (centres undefined) | inactive: 0.662% | 

Row | Structure (SMILES) | activity change, negative = inhibition | Potency
47 | Cc1cc(C)c(S(=O)(=O)N2CCOC2CNC(=O)C(=O)NCCN2CCOCC2)c(C)c1 (centres undefined) |  | inconclusive [inhibitor, partial curve, poor fit]
48 | CC(C)S(=O)(=O)c1csc(NC(=O)Nc2ccc(Cl)cc2)c1 |  | inconclusive [inhibitor, partial curve, poor fit]
49 | CCOC(=O)N1CCN(C(=O)c2ccc(C)c(S(=O)(=O)Nc3ccccc3)c2)CC1 |  | inconclusive [inhibitor, single point]
50 | Cc1ccc(-c2csc(NCCn3c(C(F)(F)F)nc4ccccc43)n2)cc1 |  | inconclusive [inhibitor, full curve, poor fit]
51 | CCOC(=O)CSC1=N/C(=C\c2ccc(OC)c(OC)c2)C(=O)N1C | inactive: 36% | 
52 | O=[N+]([O-])c1ccc(N2CCN(S(=O)(=O)c3ccccc3)CC2)cc1NCCN1CCOCC1 |  | active: 13.1 µM
53 | CN1CCN(NC(=O)CC(C)(C)C)CC1 |  | inconclusive [inhibitor, partial curve, poor fit]
54 | CCOc1ncccc1C(=O)Nc1ccc(C(=O)Nc2ccc(OC)cc2)cc1 |  | inconclusive [inhibitor, partial curve]
55 | COc1c(Br)cc2c(C)c(C(=O)N3CCOCC3)oc2c1Br |  | inconclusive [inhibitor, single point]
56 | CC(C)C(CO)N1CCN(Cc2ccccc2)CCC1=O (centres undefined) | inactive: 2.39% | 
57 | O=C1c2cccc3cccc(c23)C(=O)N1CCN1CCN(CC(O)COc2ccc3ccccc3c2)CC1 (centres undefined) |  | inconclusive [inhibitor, single point]
58 | CCOc1ccc2[nH]c(=O)c(CN(Cc3cccnc3)C(=O)Nc3ccccc3OC)cc2c1 |  | inconclusive [inhibitor, single point]
59 | Cc1ccc(NC(=O)c2nc[nH]c2C(=O)N2CCCCC2)c(C(=O)c2ccccc2)c1 |  | inconclusive [inhibitor, partial curve]
60 | CC(C)C[C@H]1CN=C(Nc2ccccc2)N1CCC1CCCC1 |  | inconclusive [inhibitor, single point]
61 | N#CCCN(C(=O)COC(=O)CCc1c[nH]c2ccccc12)c1ccccc1 | inactive: 12.9% | 
62 | COc1ccc(C2C(C(=O)Nc3cccnc3)=C(C)Nc3nc(-c4cccs4)nn32)cc1OC (centres undefined) | inactive: 5.95% | 
63 | COc1ccc(OC)c(S(=O)(=O)N2CCC3(CC2)OCCN3S(=O)(=O)c2cccs2)c1 |  | inconclusive [inhibitor, single point]
64 | CCOC(=O)N/N=C\c1ccc([N+](=O)[O-])o1 |  | inconclusive [inhibitor, full curve, poor fit]
65 | O=c1oc2cc(O[C@@H]3OC[C@@H](O)[C@H](O)[C@H]3O)ccc2c2ccccc12 | inactive: -3.92% [at 0.00184 µM] | 
66 | Cc1ccc(C)c(OCc2cc(C(=O)N3C[C@@H](C)O[C@@H](C)C3)no2)c1 | inactive: 6.49% | 
67 | Cc1ccc(C(=O)N2CCN(S(=O)(=O)c3ccc(C(C)C)cc3)CC2)s1 |  | inconclusive [inhibitor, single point]
68 | Clc1ccc(OCCn2cnc(Cl)c2Cl)cc1 |  | inconclusive [inhibitor, single point]
69 | CNC(=O)[C@H]1O[C@@H](n2cnc3c(NCc4cccc(I)c4)nc(Cl)nc32)[C@H](O)[C@@H]1O |  | inconclusive [inhibitor, partial curve]
